Results taken from PubChem BioAssay (NCATS).
This list was built around the results that the source calls inconclusive (neither active nor inactive); the mix of calls is not that of the screen. A potency beside an inconclusive call is a rough fit, not a confirmed value. Activity calls are given as the source filed them. Calls come from the whole dose curve; as a rule, active = well fitted curve in the direction sought with a large enough effect; inconclusive = small, poorly fitted or top-dose-only effect, or another doubt; inactive = no such curve, though single readings can be large; an effect the other way counts as inactive or inconclusive.

Legend:
[1] = molecular target: Rap guanine nucleotide exchange factor 3 (Homo sapiens) (UniProt O95398); assay: Confirmatory qHTS for antagonist of cAMP-regulated guanine nucleotide exchange factor 3 (EPAC1) (AID 1645880); details: EPAC1 Rap1B-BODIPY-GDP exchange, fluorescence; activity, negative = inhibition: at 115 µM (top of the series); note: nearly all actives have a fitted effect of over 55% in size;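 for activity, negative = inhibition: plate controls were DMSO only for no effect and full effect of the ATA control for full effect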
Summary of the method: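 Nucleotide exchange uses 100 nM EPAC1, 250 nM RAP1B-BODIPY-GDP and 50 uM GDP, with compounds in a concentration-titration series. After 5 min at room temperature, fluorescence (480 nm ex/540 nm em) is read every 5 min for 30 min. Data are normalized to control ATA and DMSO.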

[2] = molecular target: Rap guanine nucleotide exchange factor 3 (Homo sapiens) (UniProt O95398); assay: Counterscreen qHTS for agonist of cAMP-regulated guanine nucleotide exchange factor 3 (EPAC1) (AID 1645889); details: EPAC1 Rap1B-BODIPY-GDP exchange, fluorescence; activation: at 154 µM (top of the series) unless noted; note: nearly all actives have a fitted effect of over 40% in size; for activation: % of control where 0% means no effect
Summary of the method: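 Measured: fluorescence of BODIPY-GDP bound to Rap1B, which falls as exchange proceeds. Conditions include 50 uM competing GDP, 5 and 30 min reads, and a later cAMP challenge for antagonist detection.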
Potency is the fitted concentration of half-maximal effect; tags give direction and shape of the fitted curve.

Sequence of UniProt O95398 (O95398 whole entry, looked up): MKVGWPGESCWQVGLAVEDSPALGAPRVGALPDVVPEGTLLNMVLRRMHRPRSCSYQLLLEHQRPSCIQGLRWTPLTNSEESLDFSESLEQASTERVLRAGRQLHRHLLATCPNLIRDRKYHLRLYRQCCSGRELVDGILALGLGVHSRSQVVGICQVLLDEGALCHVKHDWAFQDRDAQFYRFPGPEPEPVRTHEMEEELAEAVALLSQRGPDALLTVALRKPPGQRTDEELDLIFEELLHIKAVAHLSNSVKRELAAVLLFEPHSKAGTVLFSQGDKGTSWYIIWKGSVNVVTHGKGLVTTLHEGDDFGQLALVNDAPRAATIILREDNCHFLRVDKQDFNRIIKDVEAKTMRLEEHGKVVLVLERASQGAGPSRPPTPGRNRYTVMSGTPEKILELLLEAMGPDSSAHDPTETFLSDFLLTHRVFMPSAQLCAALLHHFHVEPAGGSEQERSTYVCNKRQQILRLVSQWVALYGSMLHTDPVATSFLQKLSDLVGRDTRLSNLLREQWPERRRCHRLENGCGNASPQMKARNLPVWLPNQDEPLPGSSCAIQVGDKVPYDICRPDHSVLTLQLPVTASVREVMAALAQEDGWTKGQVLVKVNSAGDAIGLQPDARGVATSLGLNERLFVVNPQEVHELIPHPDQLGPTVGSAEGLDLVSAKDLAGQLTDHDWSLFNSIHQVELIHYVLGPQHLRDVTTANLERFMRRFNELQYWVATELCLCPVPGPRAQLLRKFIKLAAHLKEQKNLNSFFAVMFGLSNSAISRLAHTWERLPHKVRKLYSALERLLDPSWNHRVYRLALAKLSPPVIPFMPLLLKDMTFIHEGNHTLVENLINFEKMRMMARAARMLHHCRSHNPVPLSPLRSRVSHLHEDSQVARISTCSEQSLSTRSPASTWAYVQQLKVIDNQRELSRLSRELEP

Row | Structure (SMILES) | Potency [1] | activation [2] | Potency [2]
1 | COc1cc2c(c(OC)c1OC)-c1c(cc(OC)c(OC)c1OC)C[C@H](C)[C@H](C)C2 | inconclusive: 50.1 µM [inhibitor, partial curve, poor fit] | inactive: 23.6% [at 30.8 µM] | –
2 | C/C(=N\N(Cc1ccccc1)c1ccccc1)c1cccnc1 | inconclusive: 95.3 µM [inhibitor, partial curve, poor fit] | – | inconclusive: 8.91 µM [activator, partial curve, poor fit]
3 | COc1ccc([N+](=O)[O-])cc1NC(=S)Nc1ccccc1 | inactive | inconclusive: 49% [activator] | –
4 | CC(C)OC1(c2ccccc2)OC(=O)c2ccccc21 (stereo not drawn) | inactive | – | inconclusive: 126 µM [activator, partial curve, poor fit]
5 | Cc1ccc(-c2ccc(CN3C(CC(C)C)C(=O)N(Cc4cn(CCC5OCCO5)nn4)CCS3(=O)=O)cc2)cc1 (stereo not drawn) | inconclusive: 19 µM [inhibitor, full curve, poor fit] | – | inactive
6 | O=C(CCCn1c(SCC(=O)c2ccc(O)c(O)c2)nc2ccccc2c1=O)NCC1CCCO1 (stereo not drawn) | inconclusive: 42.6 µM [inhibitor, partial curve, poor fit] | inconclusive: 23% [activator] | –
7 | CCOc1ccc(CCNC(=O)c2ccc3c(=O)[nH]c4c(C(=O)NC(C)C)sc(=S)n4c3c2)cc1 | active: 21.3 µM | – | inconclusive: 1.58 µM [activator, full curve, poor fit]
8 | Cc1ccc(C(=O)c2cn(Cc3ccccc3)c3nc(C)ccc3c2=O)cc1 | inactive | inconclusive: 48.3% [activator] | –
9 | O=C1C=C(Nc2cccnc2)c2ccccc2C1=O | active: 67.5 µM | – | inconclusive: 22.4 µM [activator, partial curve]
10 | Cc1ccc(C(C[N+](=O)[O-])c2c(-c3ccccc3O)[nH][nH]c2=O)cc1 (stereo not drawn) | inconclusive: 50.1 µM [inhibitor, partial curve] | inconclusive: 39.5% [activator] [at 30.8 µM] | –
11 | CC(C)C[C@H]1COCCS(=O)(=O)N1Cc1cccc(C(F)(F)F)c1 | inconclusive: 37.9 µM [inhibitor, partial curve] | inconclusive: 12.2% [activator] | –
12 | COc1ccccc1-c1oc2ccccc2c1C#CC(C)(C)O | inconclusive: 37.9 µM [inhibitor, partial curve] | inconclusive: 24.1% [activator] | –
13 | COC(=O)[C@]12CCCCC=C1N(CCC1=CCCCC1)C(=O)[C@H](CC(=O)NCc1cccc(C(F)(F)F)c1)C2 | inconclusive: 39.8 µM [inhibitor, partial curve] | inconclusive: 40.6% [activator] [at 30.8 µM] | –
14 | Cc1ccc(C)c(N2CCN(C(=O)c3cccn4c(=O)c5ccccc5nc34)CC2)c1 | inconclusive: 95.3 µM [inhibitor, single point] | – | inactive
15 | Oc1ccc(N=Cc2ccc(OCc3ccccc3)cc2)cc1 | inconclusive: 79.4 µM [inhibitor, partial curve] | inconclusive: 43.2% [activator] [at 30.8 µM] | –
16 | Cc1noc(NS(=O)(=O)c2ccc(N/C=C\C(=O)c3cccc4ccccc34)cc2)c1C | inconclusive: 75.7 µM [inhibitor, partial curve] | – | inconclusive: 11.2 µM [activator, partial curve, poor fit]
17 | O=C1Cc2ccccc2C(=O)N1 | inconclusive: 26.9 µM [inhibitor, full curve] | – | inconclusive: 1.78 µM [activator, full curve, poor fit]
18 | COc1cccc(OCc2nc3ccccc3n2Cc2ccccc2)c1 | inconclusive: 84.9 µM [inhibitor, partial curve, poor fit] | – | inactive
19 | CCOC(=O)c1ccccc1NC(=O)CSc1nc2c(sc(=S)n2CC)c(=O)[nH]1 | inconclusive: 63.1 µM [inhibitor, partial curve, poor fit] | inactive: 10.2% [at 30.8 µM] | –
20 | CC1CN(C(=O)c2ccc(-c3cccc(C(F)(F)F)c3)o2)CC(C)O1 (stereo not drawn) | inconclusive: 63.1 µM [inhibitor, partial curve, poor fit] | inactive: 1.55% [at 30.8 µM] | –
21 | Cc1nnc(SCc2cccc3ccccc23)s1 | inactive | – | inconclusive: 0.0032 µM [activator, full curve, poor fit]
22 | CCN(CCCNC(=O)c1cc2cc3ccc(OC)cc3nc2s1)c1cccc(C)c1 | inconclusive: 75.7 µM [inhibitor, partial curve, poor fit] | – | inconclusive: 50.1 µM [activator, partial curve]

Row | Structure (SMILES) | Potency [1] | activation [2] | Potency [2]
23 | COc1cc(/C=C2/SC(=S)N(c3c(C)n(C)n(-c4ccccc4)c3=O)C2=O)ccc1O | inconclusive: 44.7 µM [inhibitor, partial curve] | inactive: 11.7% [at 30.8 µM] | –
24 | O=C(Nc1cc(S(=O)(=O)Nc2ccc(Cl)cc2)ccc1O)c1ccc(S(=O)(=O)N2CCCCCC2)cc1 | inconclusive: 42.6 µM [inhibitor, partial curve] | inconclusive: 31.4% [activator] | –
25 | CS(=O)(=O)c1ccc(C(=O)NCCN2C(=O)S/C(=C\c3cccnc3)C2=O)cc1[N+](=O)[O-] | inconclusive: 56.2 µM [inhibitor, partial curve, poor fit] | – | inconclusive: 15.8 µM [activator, partial curve, poor fit]
26 | CCc1nc2c(OCc3ccc(Cl)cc3)cccn2c1N(C)C(=O)c1ccccc1F | inactive | inconclusive: 35.5% [activator] [at 30.8 µM] | –
27 | c1ccc(CN(Cc2ccccc2)c2c3c(nc4ncnn24)CCC3)cc1 | inactive | – | inconclusive: 0.178 µM [activator, full curve, poor fit]
28 | CCCCN(C(=O)Cn1ncc(Cl)c(Cl)c1=O)c1c(N)n(CC(C)C)c(=O)[nH]c1=O | inconclusive: 44.7 µM [inhibitor, partial curve] | inactive: 16.5% [at 30.8 µM] | –
29 | Clc1ccccc1Cn1c(-c2cccs2)nc2ccccc21 | inactive | – | inconclusive: 22.4 µM [activator, partial curve, poor fit]
30 | Cc1ccc(C(=O)c2cn(Cc3cccc(F)c3)c3nc(C)ccc3c2=O)cc1 | inconclusive: 84.9 µM [inhibitor, single point] | – | inconclusive: 10 µM [activator, partial curve, poor fit]
31 | CCOC(=O)c1c(-c2ccc(-c3ccccc3)cc2)csc1NC(=O)CCC(=O)O | active: 42.6 µM | – | inactive
32 | C/C(=N\NC(=O)c1ccc(N/N=C(\C)c2ccc(O)cc2)cc1)c1ccc(O)cc1 | inconclusive: 5.01 µM [inhibitor, partial curve, poor fit] | inactive: 11.7% [at 30.8 µM] | –
33 | Cc1ccccc1C(=O)/C(C#N)=N/Nc1c(C)n(C)n(-c2ccccc2)c1=O | active: 42.6 µM | – | inactive
34 | CCC(NS(=O)(=O)c1ccc2c(c1)NC(=O)C(C)C(=O)N2)c1cccs1 (stereo not drawn) | inactive | – | inactive
35 | CCOC(=O)Cc1cc(=O)n2[nH]c(-c3ccccc3)c(-c3ccccc3)c2n1 | inconclusive: 84.9 µM [inhibitor, single point] | inconclusive: 38.7% [activator] | –
36 | Cc1ccc(/C=C(\C#N)C(=O)Nc2cccc3ncccc23)o1 | inconclusive: 47.8 µM [inhibitor, partial curve] | – | inconclusive: 17.8 µM [activator, full curve]
37 | CCC(=O)NC(c1ccc(OC)cc1)c1c(O)ccc2ccccc12 (stereo not drawn) | inconclusive: 47.8 µM [inhibitor, partial curve, poor fit] | – | inconclusive: 11.2 µM [activator, full curve, poor fit]
38 | CC(C)=CCC[C@H](C)C[C@@H]1Cc2[nH][nH]c(=O)c2[C@@H](c2ccc(F)cc2)O1 | inconclusive: 44.7 µM [inhibitor, partial curve] | – | inconclusive: 1.58 µM [activator, partial curve, poor fit]
39 | CN(C)c1ccc(-c2[nH][nH]c(=O)c2NC(=O)c2ccccn2)cc1 | inconclusive: 37.9 µM [inhibitor, full curve] | – | inconclusive: 1.58 µM [activator, full curve, poor fit]
40 | Cc1[nH]c2ccccc2c1C(c1ccccc1)c1cccs1 (stereo not drawn) | inactive | – | inconclusive: 22.4 µM [activator, full curve, poor fit]
41 | C=CS(=O)(=O)N(Cc1ccccc1Br)[C@H](CO)CC(C)C | inconclusive: 50.1 µM [inhibitor, partial curve, poor fit] | inconclusive: 30.8% [activator] [at 30.8 µM] | –
42 | CN(CCOc1ccc(Br)cc1)C(=O)CNC(=O)c1ccc2ccccc2c1 | inconclusive: 63.1 µM [inhibitor, partial curve, poor fit] | – | inconclusive: 17.8 µM [activator, partial curve, poor fit]
43 | Cc1cc(C)c2c(CN3CCCCC3C)cc(=O)oc2c1 (stereo not drawn) | inactive | – | inconclusive: 0.0355 µM [activator, full curve, poor fit]
44 | O=C(COc1ccc(Cl)cc1)NC1=NN(c2ccccc2)C(=O)C1 | inconclusive: 84.9 µM [inhibitor, partial curve] | – | inconclusive: 20 µM [activator, partial curve]
